Data taken from PMC4336329 (PLoS ONE, 2015).
Screen size: about 310,000 compounds; about 14,000 (4.5%) showed an effect of 50% or more. The effect is printed as a negative number. This is one part of the list.

Target: human ether-à-go-go-related gene (hERG) potassium channel (human, UniProt Q12809)
Experiment: primary screen, population patch clamp on CHO cells stably expressing hERG
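Note: peak tail current of the secondary pulse compared with the same well before compound.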

human ether-à-go-go-related gene (hERG) potassium channel, sequence (Q12809 whole entry, looked up): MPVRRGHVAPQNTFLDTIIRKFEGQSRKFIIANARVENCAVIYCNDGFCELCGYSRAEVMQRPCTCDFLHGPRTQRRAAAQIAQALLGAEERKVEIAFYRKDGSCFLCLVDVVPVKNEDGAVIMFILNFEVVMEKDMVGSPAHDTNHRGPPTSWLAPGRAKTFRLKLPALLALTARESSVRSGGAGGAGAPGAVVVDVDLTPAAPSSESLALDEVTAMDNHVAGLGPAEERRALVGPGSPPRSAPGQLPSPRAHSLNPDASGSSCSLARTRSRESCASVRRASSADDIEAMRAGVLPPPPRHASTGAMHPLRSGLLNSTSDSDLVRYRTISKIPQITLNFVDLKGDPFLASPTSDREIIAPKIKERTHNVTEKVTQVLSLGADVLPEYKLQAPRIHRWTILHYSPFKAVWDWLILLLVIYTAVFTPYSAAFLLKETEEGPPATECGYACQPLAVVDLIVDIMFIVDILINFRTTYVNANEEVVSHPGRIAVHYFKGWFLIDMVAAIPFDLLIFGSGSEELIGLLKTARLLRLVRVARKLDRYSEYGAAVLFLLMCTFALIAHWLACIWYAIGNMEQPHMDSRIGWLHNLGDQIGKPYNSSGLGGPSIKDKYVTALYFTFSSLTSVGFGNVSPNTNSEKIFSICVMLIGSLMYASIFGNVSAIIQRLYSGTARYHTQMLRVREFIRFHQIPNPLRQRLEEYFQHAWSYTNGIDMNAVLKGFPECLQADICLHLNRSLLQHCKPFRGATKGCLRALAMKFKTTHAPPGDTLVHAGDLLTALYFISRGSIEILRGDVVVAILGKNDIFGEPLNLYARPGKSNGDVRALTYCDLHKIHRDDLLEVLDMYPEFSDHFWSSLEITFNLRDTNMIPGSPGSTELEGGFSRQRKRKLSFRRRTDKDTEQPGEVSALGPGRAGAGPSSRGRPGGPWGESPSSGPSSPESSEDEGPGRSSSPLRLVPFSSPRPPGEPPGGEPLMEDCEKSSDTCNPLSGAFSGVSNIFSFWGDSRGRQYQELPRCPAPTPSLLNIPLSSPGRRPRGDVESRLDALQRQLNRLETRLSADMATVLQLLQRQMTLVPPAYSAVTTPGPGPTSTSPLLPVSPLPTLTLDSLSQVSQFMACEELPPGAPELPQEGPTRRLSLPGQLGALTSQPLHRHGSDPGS

SMILES | hERG current change (%, negative = inhibition) at 10uM [%]
Cc1nnc(SCC(=O)n2c3c(c4ccccc42)CCCC3)s1 | 9.65
CCOc1ccc(-c2cc(C(=O)Nc3ccc4c(c3)OCCO4)c3ccccc3n2)cc1 | 13.5
COC(=O)c1c(NC(=O)c2ccccc2)sc(C(N)=O)c1C | 15.9
CSc1ccc(CNCC2CCCO2)cc1.Cl (centres unmarked) | 2.99
COc1cc2oc(-c3ccc(O)cc3)cc(=O)c2c(O)c1OC | -18.2
CC(C)OC(=O)c1cccnc1SCC(=O)N(C)c1ccccc1 | -9.73
Cc1oc2c(CN3CCCC3)c(O)ccc2c(=O)c1-c1ccc(Br)cc1 | -14.1
COc1ccc(OC)c(C2=C/C(=C/c3ccccn3)C(=O)O2)c1 | -8.04
Cc1cc(C)c(NC(=O)/C(C#N)=C/c2ccc(OCc3ccc(F)cc3)cc2)c(C)c1 | -1.54
O=C1CCCc2sccc2N1 | -6.61
CCOC(=O)C1=C(CSc2nncn2C)NC(=O)NC1c1cc(OCC)ccc1OCC (centres unmarked) | 6.87
CCOC(=O)N1CCN(C(=O)c2cnn(-c3ccccc3)c2NC(=O)c2ccccc2F)CC1 | -1.25
COc1ccc(-c2cc(C(=O)NCCN3CCOCC3)c3ccccc3n2)cc1OC | 12.4
CN(C(=O)CS(=O)(=O)c1cn(CC(=O)N2CCCC2)c2ccccc12)c1ccccc1 | -3.8
Cc1ccccc1NC(=O)CCC(=O)N/N=C/c1c[nH]c2ccccc12 | 2.16
CC#CCN(CC#CC)S(=O)(=O)c1ccc(S(=O)(=O)N2CCOCC2)cc1 | -8.35
COc1ccc(CCNC(=O)C2(C)CCC(=O)N2Cc2ccc(C)cc2)cc1OC (centres unmarked) | 14.2
Cc1cc(OCC(=O)Nc2cccnc2)c2c(C)cc(=O)oc2c1 | 4.24
CC1CCCC(C)N1CCNC(=O)CCn1nc(-c2ccccc2)ccc1=O (centres unmarked) | -46.8

SMILES | hERG current change (%, negative = inhibition) at 10uM [%]
CC1=C(C(=O)c2ccccc2)C(c2ccc(O)cc2)NC(=S)N1 (centres unmarked) | 2.12
Cn1c(N2CCOCC2)c(/C=N/OC(=O)c2ccc(F)cc2)c2ccccc21 | -4.32
CCOC(=O)c1[nH]c(=O)[nH]c1COC(=O)c1cc2ccccc2o1 | -5.46
CCn1c(SCC(=O)Nc2ccccc2N2CCOCC2)nnc1-c1ccccc1O | -23.9
CCc1ccc(-c2cc3c(=O)n(CC(=O)NCCN4CCCCC4C)nc(C)n3n2)cc1 (centres unmarked) | -57.5
O=[N+]([O-])c1cc(/C=N/N2CCN(c3ccccc3)CC2)ccc1Cl | 2.14
O=C(CNC(=O)c1ccc2c(c1)OCCO2)N=Nc1c(O)[nH]c2ccccc12 | 7.19
O=C(NCC(=O)N1CCc2ccccc2C1)c1ccccc1Cl | 4.34
Cc1ccc(C(=O)c2cc(Br)ccc2N)cc1 | 11.8
N#Cc1nc(-c2ccc(F)cc2)oc1NCCN1CCOCC1 | -0.823
Cc1cccc(-c2nsc(SCC(=O)Nc3cc(C)on3)n2)c1 | 16.1
COc1ccc(C)cc1S(=O)(=O)Nc1cc2c3c(c1)CCC(=O)N3CCC2 | 7.28
Cc1nc(C(=O)NNC(=O)c2ccc(Cl)cc2)c(C(F)(F)F)o1 | 7.36
CN1/C(=C/C(=S)NC(=O)C2(C)CC2(Cl)Cl)C(C)(C)c2ccccc21 (centres unmarked) | -10
Cc1ccc(NC(=O)CC2SC3=NCCN3C2=O)cc1 (centres unmarked) | -5.4
O=C(NCC(c1ccco1)N1CCN(c2ccccc2F)CC1)C(=O)NC1CCCCC1 (centres unmarked) | 18.5
Cc1cc(NC(=O)CSc2nc3cc(Cl)ccc3s2)no1 | 13.8
CCN(CC(=O)Nc1c(F)cccc1F)C(=O)c1ccc(N2CCCC2=O)cc1 | 16.3
COc1cccc(CNC(=O)c2ccc(CS(=O)(=O)Cc3ccc(C)cc3)o2)c1 | -12.8

SMILES | hERG current change (%, negative = inhibition) at 10uM [%]
CCC(CC)CN1C(Nc2ccccc2)=NC[C@@H]1C | -2.94
COc1ccc(OC)c(-c2csc(NC(=O)Cc3ccc(OC)c(OC)c3)n2)c1 | 2.48
O=C(COc1ccc(Oc2ccccc2)cc1)NCc1cn2ccccc2n1 | -15.6
CC(=O)C1=C(O)C(=O)N(c2cccc(Br)c2)C1c1ccccc1Cl (centres unmarked) | -4.7
O=C(Nc1ccc(CCC(=O)N2CCCC2)cc1)c1ncn[nH]1 | -1.64
CC1=CC=CN2C1=NC(=O)CC2(C)C(=O)N(CC(=O)NC1CCCC1)Cc1ccccc1 (centres unmarked) | 18.2
CCN(c1ccccc1)S(=O)(=O)c1cc2c3c(c1)CCN3C(=O)CC2 | 4.72
N#CCCS(=O)(=O)c1nnnn1-c1ccccc1 | -18.7
CCc1ccc(Sc2cc(C(=O)NCCN3CCOCC3)c3ccccc3n2)cc1 | -56.2
COc1ccc(CNc2cc(C)cc(C)c2)cc1OC | 11.7
CC/C(=C1/C(=O)CC(C)(C)C(C(=O)OC)C1=O)N1CCCC1 (centres unmarked) | 17.8
CC1(C)Cc2c(sc3nc4n(-c5ccccc5)cnn4c(=O)c23)CO1 | 1.85
CCc1ccc2c(c1)/C(=N/OC)C(=O)N2 | -11
COc1ccc(OC(C)C(=O)N2CCCc3ccccc32)cc1 (centres unmarked) | 13.7
CCC(C)NC(=O)c1ccc(N2CCC3(CC2)OCCO3)c([N+](=O)[O-])c1 (centres unmarked) | 1.43
Cc1cc(C)c(OCC(=O)OCC(=O)N(C)C2CCS(=O)(=O)C2)c(C)c1 (centres unmarked) | 5.95
COc1cccc(N2CCN(C3CC(=O)N(c4cccc(Cl)c4)C3=O)CC2)c1 (centres unmarked) | -14.4
CC(C)(C)c1ccc(C(=O)NCC2CCCN2S(=O)(=O)c2ccccc2)cc1 (centres unmarked) | -6.28
